US10689459B2, “Treatment of breast cancer brain metastases” (THE GENERAL HOSPITAL CORPORATION, priority 2014, dated 2020)

Columns and labels:
BT474-Gluc brain tumors = experiment: BT474-Gluc brain tumor growth and survival analysis; assay type: in vivo, nude mice; details: MOR10703 25 mg/kg every two days i.p., COMPOUND A 30 or 50 mg/kg once a day p.o., FIG. 2A
Text: We tested the ability of the HER3 inhibitor MOR10703 alone or in combination with COMPOUND A, to slow the growth of BT474-Gluc brain tumors BM (FIG. 2A-B). […] The tumor growth delay with the combination therapies led to a 2.5 or 2-fold increase in survival, compared with the COMPOUND A monotherapy group, in BT474-Gluc or MDA-MB-361-Gluc brain tumors, respectively (3A-B).
Female nude mice (8-9 wk of age) were ovariectomized and implanted with a 0.36-mg or 0.72-mg 17β-estradiol pellet (Innovative Research of America) the day before implantation of tumor cells. Pellets were replaced at expiration date, either 60 or 90 days. For the mammary fat pad model, 5×10^6 BT474-Gluc cells were suspended in a 50-μL mixture of PBS and Matrigel Matrix High Concentration (BD Biosciences) at a 1:1 ratio before injection. For injection into the brain, the head of the mouse was fixed with a stereotactic apparatus and the skull over the left hemisphere of the brain was exposed via skin incision. […]
Tumor size was measured twice a week by measuring the activity of secreted Gluc in the blood. […] Blood was transferred to an opaque 96-well plate, and Gluc activity was measured using coelenterazine (CTZ; Nanolight) as a substrate and a plate luminometer (Centro XS LB960; Berthold Technologies). […]
Data are expressed as the mean±SEM unless otherwise noted. […]

[1] = system: T-47D, BT474 and MDA-MB-361 cells; experiment: In vitro cell growth assay (xCELLigence, CellTiter-Glo), NRG1-induced resistance; assay type: cell-based, human; details: MOR10703 100 nM, NRG1 10 ng, COMPOUND A 1 μM
Description: The xCELLigence system (Acea Biosciences Inc.) was used to assess the cell index of T-47D, BT474 and MDA-MB-361 cells. xCELLigence measures electrical impedance across micro-electrodes integrated at the bottom of tissue culture E-plates to provide quantitative information about the biological status of cells, including cell number, morphology and viability. One day before drug addition, cells were seeded in 96-well E-plates at a density of 6000-10000 cells per well in 90 μl growth media. Cells were monitored every 15 m for a period of up to 24 h via the incorporated sensor electrode arrays of the E-Plate 96. After 24 h incubation E-plates were removed, and MOR10703 (100 nM) was added first and incubated for 1 h followed by NRG1 (10 ng) and/or COMPOUND A (1 μM). Each treatment was tested in triplicate. Electric impedance was measured in 1 h intervals after addition of drug until the end of the experiment. Cell index value, which is a dimensionless parameter derived as a relative change in measured electrical impedance to represent numbers of attached cells, was calculated from the electric impedance and plotted using the RTCA software provided by the vendor. At the end of the experiment, cell growth and/or viability was determined by measuring cellular ATP content using the CellTiter-Glo Luminescent Cell Viability Assay (Promega; Madison, Wis.) according to the manufacturer's protocol.

B1: MOR10703: HER3 inhibitor antibody, sequence in Table 1; induces a conformational change and locks HER3 in an inactive state (antibody)
heavy: EVQLLESGGGLVQPGGSLRLSCAASGFTFSSYAMSWVRQAPGKGLEWVSAINSQGKSTYYADSVKGRFTISRDNSKNTLYLQMNSLRAEDTAVYYCARWGDEGFDIWGQGTLVTVSSASTKGPSVFPLAPSSKSTSGGTAALGCLVKDYFPEPVTVSWNSGALTSGVHTFPAVLQSSGLYSLSSVVTVPSSSLGTQTYICNVNHKPSNTKVDKRV[here human IgG1 Fc without letters]
light: DIQMTQSPSSLSASVGDRVTITCRASQGISNWLAWYQQKPGKAPKLLIYGASSLQSGVPSRFSGSGSGTDFTLTISSLQPEDFATYYCQQYSSFPTTFGQGTKVEIKRTVAAPSVFIFPPSDEQLKSGTASVVCLLNNFYPREAKVQWKVDNALQSGNSQESVTEQDSKDSTYSLSSTLTLSKADYEKHKVYACEVTHQGLSSPVTKSFNRGEC
With B1 the “growth of breast cancer in the brain parenchyma (blood Gluc activity)” value (BT474-Gluc brain tumors) was “did not significantly slow the growth” and the “effect on NRG1-induced breast cancer PI3K inhibitor resistance” value [1] was “overcome”.
